PubChem BioAssay AID360 (National Center for Advancing Translational Sciences (NCATS), 2006)
Out of some 48,000 compounds screened, about 550 (1.1%) were called active. Inconclusive results (about 4%) are left out. No stated cut-off is given here; in the data, active means potency below about 15 µM; inconclusive means mostly about 16 µM to 33 µM; inactive means weaker than that. The list shows a part of the results.

Target: Lysosomal acid glucosylceramidase (Homo sapiens) (UniProt P04062)
Experiment: Glucocerebrosidase;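 further: the screen sought inhibitors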
Conditions: purified enzyme, resorufin glucoside fluorescence (screen aimed at inhibitors), 20 min
Method in brief: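 Normal human glucocerebrosidase (0.2 nM final) was assayed with resorufin β-D-glucopyranoside (30 uM final) in 50mM citric acid/KH2PO4, 10mM sodium taurocholate, 0.01% tween-20, pH 5.9. Compounds were titrated; fluorescence (Ex 548, Em 600) read after 20 min at RT.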
Potency means the concentration at half of the fitted maximal effect.

UniProt P04062, sequence (P04062 whole entry, looked up): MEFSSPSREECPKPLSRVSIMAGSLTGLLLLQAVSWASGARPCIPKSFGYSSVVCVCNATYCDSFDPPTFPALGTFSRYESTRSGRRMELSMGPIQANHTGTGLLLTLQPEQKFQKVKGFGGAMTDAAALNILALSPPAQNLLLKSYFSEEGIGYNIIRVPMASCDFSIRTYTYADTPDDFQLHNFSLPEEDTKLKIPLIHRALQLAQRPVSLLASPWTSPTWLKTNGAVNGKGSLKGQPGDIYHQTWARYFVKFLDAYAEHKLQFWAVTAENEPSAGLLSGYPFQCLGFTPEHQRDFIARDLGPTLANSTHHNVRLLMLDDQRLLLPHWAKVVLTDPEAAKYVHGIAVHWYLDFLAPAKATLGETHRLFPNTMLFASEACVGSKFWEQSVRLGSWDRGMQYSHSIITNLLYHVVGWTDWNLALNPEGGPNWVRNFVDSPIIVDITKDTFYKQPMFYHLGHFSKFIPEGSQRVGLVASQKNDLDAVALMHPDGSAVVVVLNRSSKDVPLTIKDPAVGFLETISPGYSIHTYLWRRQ

Potency, inactive:
O=C(Nc1cnn(Cc2ccc(F)cc2)c1)c1cc(-c2cccs2)on1 > 76.9 µM, CCOC(=O)CSc1nnc(CNC(=O)c2cc(OC)c(OC)c(OC)c2)n1C > 76.9 µM, NC(=O)c1c(C(F)(F)F)cc(-c2ccccc2)nc1NCCO > 76.9 µM, FC(F)(F)COc1nc(OCC(F)(F)F)nc(N2CCN(c3ccccc3)CC2)n1 > 76.9 µM, CC(C)CC(C(=O)Nn1cnnc1)N1C(=O)c2ccccc2C1=O (stereo not drawn) > 76.9 µM, COc1ccc(OC)c(NC(=O)c2[nH]c(C)c(C(C)=O)c2C)c1 > 76.9 µM, COc1cccc(C(C#N)N2CCCCC2)c1O (stereo not drawn) > 76.9 µM, O=C(C1CCCO1)N1CCN(c2ncccn2)CC1 (stereo not drawn) > 76.9 µM, CCN(CC)S(=O)(=O)c1cccc(-c2nnc(SCCCC(=O)c3ccc(F)cc3)o2)c1 > 76.9 µM, Cc1cc(C(=O)N2CCN(c3ncccn3)CC2)sc1-c1ccccc1 > 76.9 µM, COc1ccc(OC)c(-n2c(N)c(C(=O)NCC3CCCO3)c3nc4ccccc4nc32)c1 (stereo not drawn) > 76.9 µM, Cc1ccc(C2(C)NC(=O)N(CC(=O)NC(=O)NC3CCCC3)C2=O)cc1 (stereo not drawn) > 76.9 µM, Cc1ccc(C2NC(=O)NC(O)(C(F)(F)F)C2C(=O)c2ccccc2)o1 (stereo not drawn) > 76.9 µM, COCCCNC(CC(=O)Nc1ccc(N(C)C)cc1)C(=O)O (stereo not drawn) > 76.9 µM, CCn1c(SCC(=O)c2ccc(Cl)s2)nnc1-c1cccs1 > 76.9 µM, CCc1nc(SCC(=O)N2CCN(C(=O)c3ccco3)CC2)c2c3c(sc2n1)CCCC3 > 76.9 µM, CC(c1ccccc1)n1cc(C(=O)NCc2cccnc2)nn1 (stereo not drawn) > 76.9 µM, CCOc1cc(C(=O)NCC(C)CN(C)C)cc(OCC)c1OCC (stereo not drawn) > 76.9 µM, COc1ccc(-c2ccc(-c3noc(C(C)C)n3)c(OC)n2)cc1 > 76.9 µM, CCOC(=O)C1CCN(S(=O)(=O)c2cccc(-c3cn4ccccc4n3)c2)CC1 > 76.9 µM, CCC(=O)Nc1c(C)c(CC)nc2ccccc12 > 76.9 µM, Nc1nc(CSc2ncn(-c3ccccc3)n2)cs1 > 76.9 µM, O=C(Nc1ccc2c(c1)OCO2)c1ccc(S(=O)(=O)NCC2CCCO2)cc1 (stereo not drawn) > 76.9 µM, Cc1ccc(S(=O)(=O)N2CCCC2C(=O)OCc2ccco2)cc1 (stereo not drawn) > 76.9 µM, c1ccc(-c2ccccc2OCCn2cncn2)cc1 > 76.9 µM, COc1cc(CC(=O)Nc2ncc(C)s2)cc(OC)c1OC > 76.9 µM, Cc1ccc2nc(-c3cccc(NC(=O)c4ccc5c(c4)OCCO5)c3)oc2c1, CCOC(=O)CN1C(=O)C(CC)Oc2ccc(Cl)cc21 (stereo not drawn) > 76.9 µM, Cc1cc(NC(=O)CSc2nc3ccccc3c(=O)n2CCCC(=O)NCc2ccco2)n[nH]1 > 76.9 µM, Cc1ccc(CNC(=O)C2CCN(S(=O)(=O)c3cccs3)CC2)o1 > 76.9 µM, CCc1ccccc1NC(=O)CSc1nnc(-c2ccco2)n1N > 76.9 µM, COc1cccc(OC)c1C(=O)N1CCN(Cc2ccc3c(c2)OCO3)CC1 > 76.9 µM, COc1ccc(S(=O)(=O)Nc2cc(C)ccn2)cc1OC > 76.9 µM, CC(NC(=O)Nc1nnc(C(F)(F)F)s1)N1C(=O)C2C3C=CC(C3)C2C1=O (stereo not drawn) > 76.9 µM, O=S(=O)(c1ccc(Sc2nnc3ccccn23)nc1)N1CCOCC1 > 76.9 µM, CS(=O)(=O)N1CCN(c2ccccc2NC(=O)Cc2ccccc2)CC1 > 76.9 µM, CN(C1CCS(=O)(=O)C1)S(=O)(=O)c1ccc(C2CCCCC2)cc1 (stereo not drawn) > 76.9 µM, CCCS(=O)(=O)N1CCC(C(=O)NCCCOC)CC1 > 76.9 µM, CCOC(=O)/C(C#N)=C(\N)C(C)C(=O)Nc1ccccn1 (stereo not drawn) > 76.9 µM, Cc1oc2c(CN3CCOCC3)c(O)ccc2c(=O)c1-c1ccccc1 > 76.9 µM, CCC(C)[C@H](NC(=O)NCc1cccc(OC)c1)C(=O)OC (stereo partly drawn) > 76.9 µM, CCOC(=O)C1CCN(C(=O)Cn2cc(C(=O)C3CC3)c3ccccc32)CC1 > 76.9 µM, Oc1[nH]c2ccccc2c1C=NCC1CCCO1 (stereo not drawn) > 76.9 µM, S=c1nc2ccccc2c2nc(-c3ccccc3)[nH]n12 > 76.9 µM, N/C(=N\c1nc2c(c(=O)[nH]1)CCCC2)Nc1ccccc1 > 76.9 µM, Cc1cccc(-c2nnc(SCc3cc(=O)[nH]c4ccccc34)n2C)c1 > 76.9 µM, CCOC(=O)c1oc2ccccc2c1NC(=O)Cc1cccs1 > 76.9 µM, CC(=O)N1CCN(S(=O)(=O)c2cccc(C(=O)Nc3nc4ccccc4[nH]3)c2)CC1 > 76.9 µM, O=C(CCCCCN1C(=O)CCC1=O)NCc1ccccc1 > 76.9 µM, Cc1ccc(S(=O)(=O)N(C)CCCC(=O)N2CCN(C=O)CC2)cc1 > 76.9 µM, CCSc1ccccc1C(=O)Nc1cc(C)on1 > 76.9 µM, C=CCc1cccc(CNc2c(C)n(C)n(-c3ccccc3)c2=O)c1O > 76.9 µM, COC(=O)C1CCCN1S(=O)(=O)c1ccc2ccccc2c1 (stereo not drawn) > 76.9 µM, COc1cc2cc(CN(CCN3CCCC3)C(=O)Nc3ccccc3Cl)c(=O)[nH]c2cc1OC > 76.9 µM, Cc1occc1-c1nnc(SCC(=O)NCCc2ccccc2)n1Cc1ccccc1 > 76.9 µM, CC(C)(C)n1nnnc1C(c1ccncc1)N1CCN(C2CCCCC2)CC1 (stereo not drawn) > 76.9 µM, O=C(CC1COc2ccccc2O1)NC1CCCCC1 (stereo not drawn) > 76.9 µM, CC(C)Cc1ccc(/C(=N/O)C(=O)O)s1 > 76.9 µM
